# According to PubChem BioAssay (NCI):
#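 48-hour exposure; five concentrations; linearly interpolated endpoints. GI50: concentration for 50% inhibition of growth. The concentration for full growth arrest is given as TGI.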
# Test system: NCI-H322M lung
# Test: growth of human tumour cells (NCI), 48 h
SMILES,TGI [µM],GI50 [µM]
CC(=O)N1c2ccccc2Sc2cc(C(O)(C(F)(F)F)C(F)(F)F)ccc21,> 10,–
CCOC(=O)CC[C@@H](NC(=O)c1ccc(N[C@@H]2c3cc4c(cc3C(c3cc(OC)c(O)c(OC)c3)C3C(=O)OC[C@@H]32)OCO4)cc1)C(=O)OCC (stereo not given in full),0.833,–
O=C1OC2(c3ccccc3Oc3ccccc32)c2ccccc21,> 100,–
CC(C)(C)N1NC1C1NN1C(C)(C)C (stereo not given),> 100,–
COc1c(O)ccc2c1CN1CCc3cc4c(cc3C1C2)OCO4 (stereo not given),99.5,–
O=[N+]([O-])C(=C(N1CCOCC1)N1CCOCC1)/C(Cl)=C(\Cl)[N+](=O)[O-],53.9,–
C=CCOCn1ccc(=O)[nH]c1=O,> 100,–
CCCCCCCCCCCCCCCCP(=O)(O)OP(=O)(O)OCC1OC(n2cnc3c(N)ncnc32)C(O)C1O (stereo not given),> 100,–
COc1cc2c(/C=C3/C(=O)Nc4ccccc43)c(Cl)n(Cc3ccccc3[N+](=O)[O-])c2cc1C,40.5,14.9
O=C(Nc1ncc(Cc2ccccc2Cl)s1)c1ccc2c(c1)OCCO2,> 100,0.75
COc1cccc(-c2nc3c(C(=O)NCCN(C)C)cccc3[nH]2)c1,30.6,–
COC(=O)C1(O)c2ccccc2N=C2C(=O)c3ccccc3N21 (stereo not given),> 100,–
COc1ccc(/C=C2/C[N+](C)(C)C/C(=C/c3ccc(OC)cc3)C2=O)cc1,> 100,–
Nc1c(-c2nc3ccccc3[nH]2)sc(=S)n1-c1ccccc1,> 100,–
Cc1cc(S(=O)(=O)Nc2nnc(-c3ccccc3)c(-c3ccccc3)n2)c(SCc2ccccc2)cc1Cl,30.9,14.1
CCOC(=O)C(C)c1cc(C2(C)OCCO2)c(C)o1 (stereo not given),> 100,–
O=C(O)C12C3CCCC1C2CC3 (stereo not given),> 100,–
COc1ccc(SC(C)(SC)c2ccccn2)c(OC)n1 (stereo not given),> 100,–
COc1ccc(-c2nc(-c3cn(C)c4ncccc34)cs2)cc1,> 100,> 100
CCOC(=O)n1cncc1CC(NC(=O)Cc1c(C(=O)C=C(C)C)[nH]c2ccccc12)C(=O)OC (stereo not given),32.6,–

SMILES,TGI [µM],GI50 [µM]
C[C@]12CC[C@@H]3c4ccc(O)cc4CC[C@H]3[C@@H]1CC[C@@H]2NS(=O)(=O)Cc1ccc(Cl)cc1,16.3,4.08
O=C(C(Br)Br)C(Br)C(Br)c1ccccc1 (stereo not given),38.3,21.1
O=C1c2ccccc2-c2c1c1ccccc1c(=O)n2CCCN1CCOCC1,> 100,> 100
COC(=O)c1c(CC#N)cccc1CC#N,> 100,–
[N-]=[N+]=Nc1ccc2c(c1)Sc1ccccc1N2CCCCCl,> 100,–
CCCCc1c2c(nc3c1CCC/C3=C\c1ccccc1)C(=O)C(CN(C)C)CC2 (stereo not given),25.4,–
CC(C)C(N=Cc1ccccc1O)C(=O)O (stereo not given),> 100,–
N=C1C(=N)c2ccccc2-c2ccccc21,3.26,–
C/C=C(\C)C(=O)O[C@H]1C=CC(=O)O[C@H]1CNC(=O)[C@H](C)O,54,21.4
O=C(O)c1cc2c(cn1)[nH]c1ccccc12,> 100,–
CSc1cc(Cl)c(C)cc1S(=O)(=O)NC(=O)NNc1ccc(F)c(Cl)c1,> 100,–
[N-]=[N+]=NC1C(Br)C(=O)NC(=O)N1[C@H]1C[C@H](O)[C@@H](CO)O1 (stereo not given in full),> 100,–
O=C(c1ccncc1)n1nc(-c2ccccc2)c(N=Nc2ccc([N+](=O)[O-])cc2)c1-c1ccccc1,> 100,–
S=C1N(c2ccc(Cl)cc2)C2=C(N=Nc3ccccc3)C(=Nc3ccccc3S2)N1c1ccccn1,26.5,–
O=C1c2ccccc2-c2c1c1ccccc1c(=O)n2CCNCCNCCn1c2c(c3ccccc3c1=O)C(=O)c1ccccc1-2,17.7,1.13
O=S(=O)(O)c1c(N=Nc2c(O)ccc3ccccc23)ccc2ccccc12,> 100,–
Cn1c(=O)c2[nH]c(CS(=O)(=O)Cc3nc4c([nH]3)c(=O)n(C)c(=O)n4C)nc2n(C)c1=O,> 100,–
CC1=Cc2cc3[n-]c(cc4nc(cc5[n-]c(cc1n2)cc5C)C(C)=C4CCC(=O)O)c(CCC(=O)O)c3C.[Pd+2],40.6,23.9
CCOC(=O)c1ccc(N2C(=O)/C(=C\OC)c3ccccc3C2=O)cc1,> 100,–
c1ccc2sc(C3(N4CCCCC4)CCCC3)cc2c1,24.1,–
